# Experimental data as given in the BET-seq Pho4 binding data (Le et al. 2018).
# This is one part of the list. Values were computed here from the reads of four pooled replicates and scatter widely.
# Target: T1, Pho4 (S. cerevisiae) (UniProt P07270)
# T1 sequence: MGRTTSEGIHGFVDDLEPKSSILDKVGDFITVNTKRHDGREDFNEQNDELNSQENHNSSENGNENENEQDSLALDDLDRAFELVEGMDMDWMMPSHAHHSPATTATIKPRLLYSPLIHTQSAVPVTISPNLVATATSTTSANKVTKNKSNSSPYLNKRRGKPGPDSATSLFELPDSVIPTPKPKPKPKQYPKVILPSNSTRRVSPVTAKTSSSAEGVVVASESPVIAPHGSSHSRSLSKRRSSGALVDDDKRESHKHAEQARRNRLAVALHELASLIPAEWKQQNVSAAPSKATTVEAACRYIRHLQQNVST
# Assay: relative binding free energy (BET-seq); higher = weaker binding
# Conditions: reference: library average
row,Sequence,relative binding free energy
1,TAATTCACGTGGAGCT,0.669 kJ/mol
2,TACGGCACGTGCTGGG,-0.46 kJ/mol
3,GTAAGCACGTGGATTT,-0.0418 kJ/mol
4,GGCGGCACGTGTTTAG,0.126 kJ/mol
5,TTTTTCACGTGGATCT,1.67 kJ/mol
6,TTTCGCACGTGACGGT,0.377 kJ/mol
7,TCTGGCACGTGTCGAG,0 kJ/mol
8,GGGGACACGTGTGATA,1.13 kJ/mol
9,ATTTGCACGTGGCGTA,-0.628 kJ/mol
10,GTAGTCACGTGTTGCC,0.711 kJ/mol
11,TATTACACGTGAGGTC,0.586 kJ/mol
12,TTGTCCACGTGGTTTG,-0.0418 kJ/mol
13,GTGGTCACGTGTTATG,0.92 kJ/mol
14,CGTGGCACGTGAACGG,0.544 kJ/mol
15,GCATTCACGTGCGGGT,0.962 kJ/mol
16,TTGTGCACGTGACAAG,-0.126 kJ/mol
17,GCCGGCACGTGGGTTT,0 kJ/mol
18,AAAGACACGTGGGTTT,0.0418 kJ/mol
19,TGGGCCACGTGTGCGA,-0.711 kJ/mol
20,GGATCCACGTGGATTT,0.92 kJ/mol
21,TTACTCACGTGCGGGT,0.669 kJ/mol

row,Sequence,relative binding free energy
1,GGAATCACGTGAGTAG,1.09 kJ/mol
2,GCGGTCACGTGAGGGT,1.42 kJ/mol
3,GAGTTCACGTGAGTAT,1.13 kJ/mol
4,CTACTCACGTGTGGGT,1 kJ/mol
5,GTTAACACGTGTTATG,-0.0837 kJ/mol
6,ATCATCACGTGGGTGT,0 kJ/mol
7,AAGTGCACGTGGATAG,-0.251 kJ/mol
8,ACATTCACGTGGGGGA,0.418 kJ/mol
9,CATGTCACGTGGGAGC,0.753 kJ/mol
10,CGTTGCACGTGTATTT,0.167 kJ/mol
11,TATTGCACGTGTGGTA,0.0418 kJ/mol
12,GGTCTCACGTGGGTAT,0.167 kJ/mol
13,TTCTGCACGTGTTGGC,-0.0837 kJ/mol
14,GGGTGCACGTGCAGAG,-0.126 kJ/mol
15,GGGGTCACGTGCATGA,0.418 kJ/mol
16,GGGGCCACGTGGCGGG,-0.669 kJ/mol
17,GTGTTCACGTGGGGGC,0.837 kJ/mol
18,AATGACACGTGATATG,0.377 kJ/mol
19,GAGTTCACGTGTAAGT,0.962 kJ/mol
20,AGGGACACGTGTTATT,-0.502 kJ/mol
21,TGGTTCACGTGATACG,1.46 kJ/mol

row,Sequence,relative binding free energy
1,TGTGGCACGTGGAGAC,-0.0418 kJ/mol
2,TTAGTCACGTGGTGTT,0.0418 kJ/mol
3,GTTACCACGTGTGTGT,-0.0418 kJ/mol
4,ATTTACACGTGAGAGT,1.46 kJ/mol
5,CTGAGCACGTGTTGTT,-0.544 kJ/mol
6,AGCAGCACGTGATTGT,0.753 kJ/mol
7,TATAGCACGTGAGTGC,0.795 kJ/mol
8,TGTCACACGTGTATGT,0.46 kJ/mol
9,ATTTGCACGTGATTGC,0.669 kJ/mol
10,CTTTTCACGTGGACGT,1 kJ/mol
11,GTCATCACGTGGGTTG,0.251 kJ/mol
12,TATAGCACGTGGTTCG,-0.711 kJ/mol
13,AGGTTCACGTGGTGTC,1.13 kJ/mol
14,GGTATCACGTGCAGTA,0.586 kJ/mol
15,GGGGCCACGTGAGGAG,0.377 kJ/mol
16,ATTTACACGTGATTTT,1.3 kJ/mol
17,TTTGGCACGTGGCCGG,-0.795 kJ/mol
18,GTAGACACGTGTGCGT,0 kJ/mol
19,GTAAGCACGTGGAGTT,-0.335 kJ/mol
20,TAATTCACGTGTGGTG,0.962 kJ/mol
21,GGAGGCACGTGGCGAG,-0.837 kJ/mol
